The subject of the test is V-C8 (BRCA2-deficient hamster cells). The experiment in a line: normalised cell viability (fraction of plate median); higher = more viable cells (less toxic). The following applies: 5 µM. Summed up:
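Hamster V-C8 cells lacking BRCA2 and V-C8 cells with BRCA2 restored were seeded in 96-well plates. Library drugs (10 mM DMSO stocks) were added 24 h later at 5 μM in 100 μl medium, next to DMSO control wells, for 3 days (screen 1) or 6 days (screen 2). Cell viability was read by resazurin assay, median-plate normalised (modified robust per cent of sample), and triplicate wells were averaged.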

Structures can show the parent of a compound that is named as a salt. ± gives the standard deviation of the averaged measurements. The full ranking holds about 1,300 compounds; the median of “normalised cell viability” is about 1, and the lowest 2% start at about 0.14. The list shows a part of the results.

For `O=C(O)Cc1ccc(-c2ccccc2)cc1` [Felbinac], the normalised cell viability was 1.02 ± 0.011 (treatment time: 3 days) and 1.06 ± 0.043 (treatment time: 6 days).

As for `Clc1ccc(CCC(Cn2ccnc2)Sc2c(Cl)cccc2Cl)cc1` (stereo unspecified) [Butoconazole nitrate], the normalised cell viability is 0.839 ± 0.015 (treatment time: 3 days) and 0.801 ± 0.028 (treatment time: 6 days).

For the compound `N#Cc1ccc(C(c2ccc(C#N)cc2)n2cncn2)cc1` [Letrozole], the normalised cell viability was 1.07 ± 0.052 (treatment time: 3 days) and 1.09 ± 0.043 (treatment time: 6 days).

Turning to `C[N+]1(C)CCC(OC(=O)C(O)(c2ccccc2)C2CCCC2)C1` (stereo unspecified) [Glycopyrrolate], the normalised cell viability turned out to be 1.11 ± 0.12 (treatment time: 3 days) and 1.06 ± 0.04 (treatment time: 6 days).

For the compound `N=C(NCCCCCCNC(=N)NC(=N)Nc1ccc(Cl)cc1)NC(=N)Nc1ccc(Cl)cc1` [Chlorhexidine], the normalised cell viability (treatment time: 3 days) was 0.129 ± 0.0057 and the normalised cell viability (treatment time: 6 days) is 0.101 ± 0.0054.

As for `NCc1ccccc1CC(=O)N[C@@H]1C(=O)N2C(C(=O)O)=C(CSc3nnnn3CC(=O)O)CS[C@H]12` [Ceforanide], the normalised cell viability worked out at 1.02 ± 0.073 (treatment time: 3 days) and 1.21 ± 0.22 (treatment time: 6 days).

Take `CN1CCN(C2=Nc3ccccc3Oc3ccc(Cl)cc32)CC1` [Loxapine succinate]: the normalised cell viability runs as follows: (treatment time: 3 days) 1.17 ± 0.063; (treatment time: 6 days) 1.15 ± 0.03.

Regarding `COc1ccc(CC(C)NCC(O)c2ccc(O)c(NC=O)c2)cc1` (stereo unspecified) [Formoterol fumarate], the normalised cell viability runs as follows: (treatment time: 3 days) 1.16 ± 0.21; (treatment time: 6 days) 0.96 ± 0.068.

As for `CC(=O)[C@@]12O[C@](C)(c3ccccc3)O[C@@H]1C[C@H]1[C@@H]3CCC4=CC(=O)CC[C@]4(C)[C@H]3CC[C@@]12C` [Algestone acetophenide], the normalised cell viability reads like this: (treatment time: 3 days) 0.915 ± 0.05; (treatment time: 6 days) 0.945 ± 0.094.

With `COC(=O)[C@H](c1ccccc1Cl)N1CCc2sccc2C1` [Clopidogrel], the normalised cell viability is 1.04 ± 0.05 (treatment time: 3 days) and 0.989 ± 0.061 (treatment time: 6 days).

`C[C@]12CCC(=O)C=C1CC[C@@H]1[C@@H]2C(=O)C[C@@]2(C)[C@H]1CC[C@]2(O)C(=O)CO` [Cortisone] displayed a normalised cell viability (treatment time: 3 days) of 1.07 ± 0.048 and a normalised cell viability (treatment time: 6 days) of 1.07 ± 0.021.

Regarding `COCCCC/C(=N\OCCN)c1ccc(C(F)(F)F)cc1` [Fluvoxamine maleate], the normalised cell viability was 0.975 ± 0.024 (treatment time: 3 days) and 0.993 ± 0.02 (treatment time: 6 days).

With `CN(C)[C@@H]1C(O)=C(C(N)=O)C(=O)[C@@]2(O)C(O)=C3C(=O)c4c(O)cccc4[C@@](C)(O)[C@H]3C[C@@H]12` [Tetracycline hydrochloride], the normalised cell viability runs as follows: (treatment time: 3 days) 1.06 ± 0.021; (treatment time: 6 days) 0.942 ± 0.058.

Turning to `C[C@H](N[C@@H](CCc1ccccc1)C(=O)O)C(=O)N1CCC[C@H]1C(=O)O` [Enalaprilat dihydrate], the normalised cell viability is, setting by setting: (treatment time: 3 days) 1.07 ± 0.028; (treatment time: 6 days) 1.07 ± 0.045.

Take `CCc1ccc(CCOc2ccc(CC3SC(=O)NC3=O)cc2)nc1` (stereo unspecified) [Pioglitazone]: the normalised cell viability (treatment time: 3 days) was 0.32 ± 0.013 and the normalised cell viability (treatment time: 6 days) came out at 0.208 ± 0.0067.

With `Cc1ccc(N(CC2=NCCN2)c2cccc(O)c2)cc1` [Phentolamine hydrochloride], the normalised cell viability (treatment time: 3 days) amounted to 1.01 ± 0.032 and the normalised cell viability (treatment time: 6 days) is 1 ± 0.021.

For the compound `Cc1c(Cl)cccc1Nc1ccccc1C(=O)O` [Tolfenamic acid], the normalised cell viability (treatment time: 3 days) stood at 1.04 ± 0.017 and the normalised cell viability (treatment time: 6 days) turned out to be 1.03 ± 0.04.

For the compound `CCCSc1ccc2[nH]c(NC(=O)OC)nc2c1` [Albendazole], the normalised cell viability (treatment time: 3 days) stood at 0.184 ± 0.0091 and the normalised cell viability (treatment time: 6 days) is 0.192 ± 0.026.

For the compound `CO[C@H]1/C=C/O[C@@]2(C)Oc3c(C)c(O)c4c(O)c(c(/C=N/N5CCN(C)CC5)c(O)c4c3C2=O)NC(=O)/C(C)=C\C=C\[C@H](C)[C@H](O)[C@@H](C)[C@@H](O)[C@@H](C)[C@H](OC(C)=O)[C@@H]1C` [Rifampicin], the normalised cell viability runs as follows: (treatment time: 3 days) 1.03 ± 0.038; (treatment time: 6 days) 1.02 ± 0.033.

On to `CC[C@H]1OC(=O)[C@H](C)[C@@H](O[C@H]2C[C@@](C)(OC)[C@@H](O)[C@H](C)O2)[C@H](C)[C@@H](O[C@@H]2O[C@H](C)C[C@H](N(C)C)[C@H]2O)[C@](C)(O)C[C@@H](C)C(=O)[C@H](C)[C@@H](O)[C@]1(C)O` [Erythromycin], for which the normalised cell viability runs as follows: (treatment time: 3 days) 0.962 ± 0.027; (treatment time: 6 days) 0.998 ± 0.023.

On to `O=C1c2ccccc2C(=O)C1c1ccccc1` [Phenindione], for which the normalised cell viability is 0.97 ± 0.04 (treatment time: 3 days) and 0.942 ± 0.059 (treatment time: 6 days).

In the case of `Clc1ccc2c(c1)C(N1CCNCC1)=Nc1ccccc1O2` [Amoxapine], the normalised cell viability runs as follows: (treatment time: 3 days) 0.533 ± 0.035; (treatment time: 6 days) 0.647 ± 0.019.

As to `O=C(O)CCc1nc(-c2ccccc2)c(-c2ccccc2)o1` [Oxaprozin], the normalised cell viability reads like this: (treatment time: 3 days) 0.975 ± 0.16; (treatment time: 6 days) 1.24 ± 0.25.

In the case of `c1ccc(CC2=NCCN2)cc1` [Tolazoline hydrochloride], the normalised cell viability amounted to 1 ± 0.025 (treatment time: 3 days) and 0.98 ± 0.038 (treatment time: 6 days).

For `CC(C)(Oc1ccc(CCNC(=O)c2ccc(Cl)cc2)cc1)C(=O)O` [Bezafibrate], the normalised cell viability worked out at 0.404 ± 0.075 (treatment time: 3 days) and 0.513 ± 0.022 (treatment time: 6 days).

As to `OCCN1CCN(CCCN2c3ccccc3Sc3ccc(C(F)(F)F)cc32)CC1` [Fluphenazine dihydrochloride], the normalised cell viability by setting is: (treatment time: 3 days) 0.666 ± 0.062; (treatment time: 6 days) 0.724 ± 0.14.

Regarding `CC(=O)OCC(=O)NCCCOc1cccc(CN2CCCCC2)c1` [Roxatidine Acetate HCl], the normalised cell viability was 0.1484 ± 0.0012 (treatment time: 3 days) and 0.149 ± 0.008 (treatment time: 6 days).

As to `CCn1cc(C(=O)O)c(=O)c2cc(F)c(N3CCNCC3)nc21` [Enoxacin], the normalised cell viability runs as follows: (treatment time: 3 days) 0.86 ± 0.018; (treatment time: 6 days) 0.916 ± 0.026.

Regarding `CCCc1ncc(C[n+]2ccccc2C)c(N)n1` [Amprolium hydrochloride], the normalised cell viability by setting is: (treatment time: 3 days) 1.1 ± 0.25; (treatment time: 6 days) 1 ± 0.053.

As for `CC(C(=O)O)c1cccc(Oc2ccccc2)c1` (stereo unspecified) [Fenoprofen calcium salt dihydrate], the normalised cell viability runs as follows: (treatment time: 3 days) 1.05 ± 0.086; (treatment time: 6 days) 1.04 ± 0.062.

In the case of `Oc1ccc(C2CNCCc3c2cc(O)c(O)c3Cl)cc1` (stereo unspecified) [Fenoldopam], the normalised cell viability reads like this: (treatment time: 3 days) 1.04 ± 0.046; (treatment time: 6 days) 0.956 ± 0.078.

`CS(=O)(=O)c1ccc([C@@H](O)[C@@H](CF)NC(=O)C(Cl)Cl)cc1` [Florfenicol]: the normalised cell viability is, setting by setting: (treatment time: 3 days) 0.65 ± 0.048; (treatment time: 6 days) 0.618 ± 0.045.

For `CCN(CC)CCCC(C)Nc1ccnc2cc(Cl)ccc12` (stereo unspecified) [Chloroquine diphosphate], the normalised cell viability by setting is: (treatment time: 3 days) 0.756 ± 0.026; (treatment time: 6 days) 0.76 ± 0.0079.

For the origin of these results see the supplement of paper PMC6609913.
